Source: patent US20020133846A1, “Method for protecting plants” (priority 1996, published 2002)

Test system: Pseudomonas syringae DC3000
Test: Infection with Pseudomonas syringae DC3000 in Arabidopsis, Example 17
Conditions: day 0 or day 2
Source text: In addition to resistance to the fungal pathogen P. parasitica, cim3 was also resistant to infection with the bacterial pathogen Pseudomonas syringae DC3000. Six-week-old wild-type (±INA treatment), and cim3 plants were inoculated with a suspension of P. syringae DC3000 and the progress of the disease was followed by monitoring the growth of the bacteria extracted from infected leaves over time. […] However, by day four, there was a 31-fold decrease in bacterial growth between wild-type and cim3 plants (P<0.003; Sokal and Rohlf, 1981). The plants were also visually inspected for disease symptoms. Leaves from wild-type plants were severely chlorotic with disease symptoms spreading well beyond the initial zone of injection.
For this example, cultures of Pseudomonas syringae pv. tomato strain DC3000 were grown on King's B media (agar plates or liquid) plus rifampicin (50 jig/ml) at 28° C. (Walen et al. (1991) Plant Cell 3, 49-59). An overnight culture was diluted and resuspended in 10 mM MgCT2 to a density of 2-5×10^5 cells per ml and injected into Arabidopsis leaves. […] Bacterial colonies were counted and the data were subjected to Student's t statistical analysis (Sokal and Rohlf (1981), Biometry, 2nd ed. New York: W.H. Freeman and Company). […]

## O=C(O)c1cc(Cl)nc(Cl)c1 [INA, 2,6-dichloroisonicotinic acid]
  difference in bacterial titers between Col-O, Col-O + INA and cim3: not statistically significant
